The values below come from PubChem BioAssay AID463173 (ICCB-Longwood Screening Facility, Harvard Medical School, 2010).

Molecules are shown by their SMILES. In all, about 52,000 compounds went through this assay and about 1,700 (3.3%) were called active. No stated cut-off is given here; in the data, active means survival mostly below about 52% (no sharp cut-off); inactive means mostly above about 56%. The list shows a part of the results.

The test system of the test is Wild type. In words: growth inhibition of S. aureus wild type versus tarO mutant, primary screen, teichoic acid synthesis inhibitors, RN4220, OD600 (AID 463173). The settings on record: S. aureus RN4220 wild type/DeltatarO growth, OD600, 18 h, active compounds read low, screened at 18.75 µg/mL (by protocol).
As for `Cc1ccccc1NC(=O)Nc1nnc(N(C)Cc2ccccc2)s1`, the survival was inactive: 91%.
Regarding `Cc1c(Cl)cccc1N1CC(c2nc3ccccc3n2Cc2ccccc2F)CC1=O` (stereo not given), the survival was inactive: 44%.
To `Oc1ccccc1-c1nc(/C=C/c2ccc(F)cc2)no1` belongs inactive: 85%.
Regarding `CCCCCSc1nnc2c(n1)OC(c1ccc(C)s1)N(C(C)=O)c1ccccc1-2` (stereo not given), the survival was inactive: 34%.
As for `COc1ccc(S(=O)(=O)NC2(C(F)(F)F)NC(=O)N(CCc3ccccc3)C2=O)cc1` (stereo not given), the survival is inactive: 94%.
Consider `CCS(=O)(=O)c1c(Nc2ccc(F)c(Cl)c2)sc(C(=O)c2ccccc2)c1N`, for which the survival was inactive: 65%.
On to `Cc1cccc(NC(=O)Cn2c(=O)n(Cc3ccc4c(c3)OCO4)c(=O)c3ccccc32)c1`, for which the survival was inactive: 77%.
Take `Cc1ccc(N2CCN(C(=O)c3nn(C)c4c3CS(=O)(=O)c3ccccc3-4)CC2C)cc1` (stereo not given): the survival is inactive: 76%.
For the compound `Cc1ccc(-c2nnn(CC(=O)N(Cc3ccccc3)C(C(=O)NC3CCCC3)c3ccco3)n2)cc1` (stereo not given), the survival is inactive: 99%.
Take `CCOc1ccc(-c2ccc(NS(=O)(=O)c3cc(C)ccc3OC)cc2)nn1`: the survival is inactive: 93%.
As for `O=C(C1CCC1)N1CCN(c2ccccc2)CC1`, the survival was inactive: 98%.
With `CC1CCCN(c2nc3nonc3nc2Nc2cccc(Cl)c2)C1` (stereo not given), the survival was active: 0%.
As for `Cc1cc(=O)[nH]c(SCC(=O)N2CCN(c3ccccc3)CC2)n1`, the figure is inactive: 87%.
With `COc1ccc(-c2nc3ccc(C(=O)NCc4ccc(C)cc4)cc3nc2-c2ccc(OC)cc2)cc1`, the survival is inactive: 91%.
Turning to `O=C(CC1N=C2c3ccccc3N=C(SCc3ccccc3Cl)N2C1=O)NC1CCCCC1` (stereo not given), the survival was inactive: 85%.
Turning to `COc1ccc(Cl)cc1-n1c(CCC(=O)O)ccc1-c1ccc(C)cc1`, the survival was inactive: 13%.
Take `COc1ccc(NC(=O)c2oc3ccccc3c2NC(=O)Cc2ccc(F)cc2)c(OC)c1`: the survival is inactive: 86%.
For `CC1CCN(S(=O)(=O)c2ccc3c(c2)N(CC(=O)Nc2ccc(F)c(Cl)c2)C(=O)CO3)CC1`, the survival is inactive: 100%.
Regarding `Cc1nn(CC(=O)N2CCN(c3ccccc3)CC2)c(=O)c2cc3sccc3n12`, the survival was inactive: 88%.
`O=c1cc(O)c2c(=O)n3c4c(cccc4c2o1)CCC3`: the survival was inactive: 121%.
To `CCC(=O)N1CCc2cc(CNS(=O)(=O)c3cc(Cl)ccc3OC)ccc21` belongs inactive: 68%; to `COc1ccc(Br)cc1CNC(=O)CCSCc1ccc(Cl)cc1`, inactive: 80%.
As for `Cc1ccc(OCCn2c(COc3ccc(Cl)cc3)nc3ccccc32)cc1`, the figure is inactive: 74%; as for `CCN1CCN(c2cc(C)c3cc(NC(=O)c4cc(OC)cc(OC)c4)ccc3n2)CC1`, inactive: 83%.
As for `CCc1ccccc1NC(=O)Cn1c(=O)ccc2cc(S(=O)(=O)N3CCC(C)CC3)ccc21`, the figure is inactive: 83%; as for `Cc1cccc(N2CCN(S(=O)(=O)c3c(C)nc4scc(C)n4c3=O)CC2C)c1` (stereo not given), inactive: 95%.
Consider `Cc1ccc(CCNC(=O)CN2N=C(c3ccc(C)cc3)CCC2=O)cc1`, for which the survival was inactive: 88%.
To `COc1ccc(N2C(=O)CCSC23C(=O)N(Cc2ccc(F)cc2)c2ccccc23)cc1Cl` (stereo not given) belongs inactive: 80%.
As to `CCC(C)NC(=O)Cn1cnc2sc(C)c(S(=O)(=O)N3CCN(c4ccccc4OC)CC3)c2c1=O` (stereo not given), the survival was inactive: 85%.
Turning to `Cc1c(C(=O)Nc2cccc(Cl)c2)oc2ccc(S(=O)(=O)N3CCOCC3)cc12`, the survival is inactive: 71%.
As to `COc1cccc(NC(=O)N2CCC(CN3CCOCC3)CC2)c1`, the survival was inactive: 78%.
As for `CC1CCN(C(=O)c2ccc(NC(=O)c3nsc4ccccc34)cc2)CC1`, the survival was inactive: 71%.
Take `CCOC(=O)c1sc(NC(=O)c2nc3nc(C)cc(C(F)F)n3n2)c(C(=O)OC)c1C`: the survival is inactive: 69%.
For `CCOc1cccc(C2c3c(oc4cc(C)c(C)cc4c3=O)C(=O)N2c2nc(C)c(C)s2)c1` (stereo not given), the survival was inactive: 71%.
As for `Cc1cccc(NC(=O)CN(c2cccc(C(F)(F)F)c2)S(C)(=O)=O)c1`, the figure is inactive: 117%; as for `CC(C)NC(=O)c1ccc2c(c1)nnn2C`, inactive: 112%; as for `Cc1ccc(NC(=O)CN2C(=O)C(C)(C)c3cc(S(=O)(=O)N4CCCCC4)ccc32)c(Br)c1`, inactive: 63%.
To `Cn1nc(C(=O)Nc2ccccc2C#N)c2c1-c1ccccc1SC2` belongs inactive: 90%; to `COc1cccc(-c2cc(C(=O)Nc3cccnc3Cl)no2)c1`, inactive: 95%.
For the compound `CCOc1ccc(NC(=O)CSc2nc3ccccc3c(=O)n2CCC(=O)NC2CCCCC2)cc1`, the survival is inactive: 127%.
For `COc1ccc(NC(=O)CN(C)S(=O)(=O)c2cnc[nH]2)cc1`, the survival was inactive: 76%.
For the compound `O=C(COC(=O)c1cc(-c2cccs2)nc2ccccc12)c1ccc(Cl)cc1`, the survival is inactive: 88%.
As for `COc1cc(C(=O)NCCSc2c(C)[nH]c3ccccc23)cc(OC)c1OC`, the figure is inactive: 76%; as for `CCOc1ccc(Nc2oc(/C=C/c3cc(OC)c(OC)c(OC)c3)nc2C#N)cc1`, inactive: 85%; as for `O=C(NC1CC(=O)N(c2ccc(Cl)cc2)C1)C1CCCCC1` (stereo not given), inactive: 85%.
`COc1cccc(NS(=O)(=O)c2cc(-c3cnc(C4CC4)o3)ccc2C)c1`: the survival is inactive: 73%.
Take `COc1ccc(-c2noc(C3CC(=O)N(c4ccc5c(c4)OCCO5)C3)n2)c(OC)c1` (stereo not given): the survival is inactive: 88%.
With `OCCCCNc1cccc2ccccc12`, the survival was inactive: 116%.
As to `O=C(O)CSc1nc2ccccc2nc1N1CCCCC1`, the survival is inactive: 62%.
For `COc1ccc(CCNC(=O)CSc2cn(CCNC(=O)c3ccc(OC)c(OC)c3)c3ccccc23)cc1OC`, the survival is inactive: 71%.
Take `COC(=O)c1c(NC(=O)/C(C#N)=C/c2ccc(OC)cc2)sc2c1C(C(=O)OC)CC2` (stereo not given): the survival was inactive: 71%.
As for `CCc1ccccc1NC(=O)[C@H](Cc1ccccc1)N1Cc2ccccc2C1=O`, the survival is inactive: 87%.
Take `CCOc1ccc(NC(=O)c2oc3ccccc3c2NC(=O)C(C)Oc2ccccc2)cc1` (stereo not given): the survival is inactive: 94%.
Regarding `Cc1cccc(C)c1NC(=O)CSc1nccn1C`, the survival was inactive: 66%.
As for `CCOc1ccc(CNC(=O)c2cccc(Nc3nc4ccccc4n4nnnc34)c2)cc1OC`, the figure is inactive: 66%; as for `Cc1ccc(C)c(CN2C(=O)c3ccccc3S(=O)(=O)c3ccc(C(=O)N4CCN(Cc5ccccc5)CC4)cc32)c1`, inactive: 80%.
Regarding `CC(C)Cn1c(SCc2cccc(F)c2)nc2ccsc2c1=O`, the survival was inactive: 91%.
Take `Cc1ccc2c(=O)cc(C(=O)Nc3ccc(S(=O)(=O)N4CCCC(C)C4)cc3)oc2c1C` (stereo not given): the survival is inactive: 81%.
As to `CC(=O)c1cc2c(cc1N/C(=N/S(=O)(=O)c1ccc(C)cc1)c1ccc(Cl)cc1)OCO2`, the survival was active: 10%.
To `O=C(CCn1c(=O)c2cccn2c2cccnc21)NCc1cccc(Br)c1` belongs inactive: 92%.
Take `CC1Cc2cc(S(=O)(=O)CCC(=O)Nc3ccc(OC(F)(F)F)cc3)ccc2N1C(=O)C1CC1` (stereo not given): the survival is inactive: 80%.
For the compound `NC(=O)c1noc(C(=O)N(c2ccc(OC(F)(F)F)cc2)C(C(=O)NC2CCCC2)c2c[nH]c3ccccc23)c1N` (stereo not given), the survival is inactive: 123%.
As to `COc1ccc(Cc2nc3ccc(C(=O)NCCc4ccc(Cl)cc4)cc3o2)cc1`, the survival is inactive: 71%.
Take `CCN(C(=O)CCS(=O)(=O)c1cc(Br)cc2c1N(C(=O)C1CC1)CC2)c1cccc(C)c1`: the survival is inactive: 78%.
In the case of `COc1ccc(-c2cn3c(n2)sc2cc(C(=O)NCc4ccccc4)ccc23)cc1`, the survival was inactive: 89%.
For the compound `Cc1ccc(CNc2c(C)c(C)nc3nncn23)cc1`, the survival is inactive: 86%.
Turning to `COc1ccc(OC)c(C2CC(=O)Nc3ccc4ccccc4c32)c1` (stereo not given), the survival was inactive: 95%.
As for `CC(NC(=O)c1c(O)nc2ccccn2c1=O)c1ccccc1` (stereo not given), the figure is inactive: 61%.
`O=C(c1ccco1)N1CCN(C(c2ccccc2)c2nnnn2Cc2ccccc2)CC1` (stereo not given): the survival is inactive: 102%.
With `CCOc1ccccc1N1CC(c2nc3ccccc3n2CCCCOc2ccccc2)CC1=O` (stereo not given), the survival is inactive: 73%.
As for `COc1ccc(C2c3cc(OC)c(OC)cc3CC(=O)N2c2cccc(C#N)c2)cc1` (stereo not given), the survival was inactive: 84%.
To `COc1ccccc1C1=Nn2c(nc3sc(C(=O)Nc4ccccc4Cl)c(C)c3c2=O)SC1` belongs inactive: 90%.
To `Cc1ccc(C)c(C(=O)N2CCC(c3nc4c(nnn4Cc4ccccc4)c(=O)[nH]3)CC2)c1` belongs inactive: 13%; to `CCOCCCn1c(SCC(=O)Nc2ccccc2OC)nc2c(oc3ccccc32)c1=O`, inactive: 81%.
With `COc1cc(Nc2nc3ccc(Cl)cc3nc2-n2nc(C)cc2C)cc(OC)c1`, the survival was inactive: 93%.
Regarding `CCOC(=O)c1cccc(NC(=O)c2cc(C)nc3c2c(C)nn3-c2ccc(C)cc2)c1`, the survival is inactive: 68%.
`Cc1ccc(Cl)cc1NC(=O)CCn1cnc2ccccc2c1=O`: the survival is inactive: 72%.
On to `CCOC(=O)c1ccc(NC(=O)C2=C(C)C(=O)OC23CCN(C(C)=O)CC3)cc1`, for which the survival is inactive: 66%.
On to `O=C(O)C(F)(F)C12OC3C4C5CC(C6C5C3C61)C42` (stereo not given), for which the survival was inactive: 106%.
To `O=C(CN1C(=O)COc2ccc(S(=O)(=O)NC3CCCC3)cc21)NCc1ccccc1Cl` belongs inactive: 69%; to `O=C(O)c1c2c(nc3ccccc13)-c1ccccc1CC2`, inactive: 119%.
As for `CCc1cccc(C)c1NC(=O)CSc1n[nH]c(-c2ccccc2)n1`, the figure is inactive: 71%; as for `Cn1ncc2c(Nc3cccc(C#N)c3)ncnc21`, inactive: 93%; as for `Cc1cc(C)cc(NC(=O)C(=O)NCC(c2cccnc2)N2CCOCC2)c1` (stereo not given), inactive: 108%.
With `COc1cc(NC(=O)CCN2CCN(c3ccccc3)CC2)cc(OC)c1`, the survival was inactive: 131%.
Turning to `Cc1ccccc1OCCSc1nnc(-c2cccs2)o1`, the survival is inactive: 111%.
Regarding `CCCc1nc(=S)c2ccccc2[nH]1`, the survival is inactive: 99%.
Turning to `COc1ccc(Cl)cc1NC(=O)Cn1c(=O)n(Cc2ccc(F)cc2)c(=O)c2cccnc21`, the survival was inactive: 74%.
As for `CC(=O)N1CCN(CC(O)COc2ccc(Br)cc2)CC1` (stereo not given), the figure is inactive: 105%; as for `COC(=O)C1(CO)NC(c2ccccc2F)C2C(=O)N(c3ccccc3)C(=O)C21` (stereo not given), inactive: 108%.
